PMC9911399, “Two distinct binding modes provide the RNA-binding protein RbFox with extraordinary sequence specificity”
Numbering of substitutions follows the chain as printed; changes in the protein carry UniProt numbers. Some of the results follow.

T1: RBFOX1 RRM (Homo sapiens, UniProt Q9NWB1 109-208)
T1 sequence: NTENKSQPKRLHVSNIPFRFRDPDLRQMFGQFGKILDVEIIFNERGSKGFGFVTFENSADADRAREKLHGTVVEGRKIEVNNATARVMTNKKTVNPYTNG

B1: CAGAUCG (DNA:RNA)
RNA: GGGAGACCGGAAUUCAGAUUGUCCCAGAUCGUUAAAUCCCGUCGUAGCCACCA
DNA 1: CAATCTGAATTCCGGTCTCCC
DNA 2: TGGTGGCTACGACGGGATT
B2: AACACGC (DNA:RNA)
RNA: B1 RNA with C25A, G27C, U29C, C30G, G31C
DNA 1: CAATCTGAATTCCGGTCTCCC
DNA 2: TGGTGGCTACGACGGGATT
B3: GUAUCUA (DNA:RNA)
RNA: GGGAGACCGGAAUUCAGAUUGUCCGUAUCUAUUAAAUCCCGUCGUAGCCACCA
DNA 1: CAATCTGAATTCCGGTCTCCC
DNA 2: TGGTGGCTACGACGGGATT
B4: AACUUCA (DNA:RNA)
RNA: B1 RNA with C25A, G27C, A28U, G31A
DNA 1: CAATCTGAATTCCGGTCTCCC
DNA 2: TGGTGGCTACGACGGGATT
B5: UCUCACG (DNA:RNA)
RNA: B1 RNA with C25U, A26C, G27U, A28C, U29A
DNA 1: CAATCTGAATTCCGGTCTCCC
DNA 2: TGGTGGCTACGACGGGATT
B6: AAUACCC (DNA:RNA)
RNA: B1 RNA with C25A, G27U, U29C, G31C
DNA 1: CAATCTGAATTCCGGTCTCCC
DNA 2: TGGTGGCTACGACGGGATT
B7: AGACCCG (DNA:RNA)
RNA: B1 RNA with C25A, A26G, G27A, A28C, U29C
DNA 1: CAATCTGAATTCCGGTCTCCC
DNA 2: TGGTGGCTACGACGGGATT
B8: GCAGAGU (DNA:RNA)
RNA: B3 RNA with U26C, U28G, C29A, U30G, A31U
DNA 1: CAATCTGAATTCCGGTCTCCC
DNA 2: TGGTGGCTACGACGGGATT
B9: CGAACAA (DNA:RNA)
RNA: B3 RNA with G25C, U26G, U28A, U30A
DNA 1: CAATCTGAATTCCGGTCTCCC
DNA 2: TGGTGGCTACGACGGGATT
B10: UGCUCAC (DNA:RNA)
RNA: B3 RNA with G25U, U26G, A27C, U30A, A31C
DNA 1: CAATCTGAATTCCGGTCTCCC
DNA 2: TGGTGGCTACGACGGGATT
B11: CACGCAC (DNA:RNA)
RNA: B1 RNA with G27C, A28G, U29C, C30A, G31C
DNA 1: CAATCTGAATTCCGGTCTCCC
DNA 2: TGGTGGCTACGACGGGATT
B12: CUGUCGC (DNA:RNA)
RNA: B3 RNA with G25C, A27G, U30G, A31C
DNA 1: CAATCTGAATTCCGGTCTCCC
DNA 2: TGGTGGCTACGACGGGATT
B13: GAUUGGU (DNA:RNA)
RNA: B3 RNA with U26A, A27U, C29G, U30G, A31U
DNA 1: CAATCTGAATTCCGGTCTCCC
DNA 2: TGGTGGCTACGACGGGATT
B14: ACUUUGU (DNA:RNA)
RNA: B1 RNA with C25A, A26C, G27U, A28U, C30G, G31U
DNA 1: CAATCTGAATTCCGGTCTCCC
DNA 2: TGGTGGCTACGACGGGATT
B15: GUAUAUG (DNA:RNA)
RNA: B3 RNA with C29A, A31G
DNA 1: CAATCTGAATTCCGGTCTCCC
DNA 2: TGGTGGCTACGACGGGATT
B16: CAAAUAC (DNA:RNA)
RNA: B1 RNA with G27A, C30A, G31C
DNA 1: CAATCTGAATTCCGGTCTCCC
DNA 2: TGGTGGCTACGACGGGATT
B17: UGGCUAC (DNA:RNA)
RNA: B1 RNA with C25U, A26G, A28C, C30A, G31C
DNA 1: CAATCTGAATTCCGGTCTCCC
DNA 2: TGGTGGCTACGACGGGATT
B18: GCGUAUC (DNA:RNA)
RNA: B3 RNA with U26C, A27G, C29A, A31C
DNA 1: CAATCTGAATTCCGGTCTCCC
DNA 2: TGGTGGCTACGACGGGATT
B19: UUGACUC (DNA:RNA)
RNA: B3 RNA with G25U, A27G, U28A, A31C
DNA 1: CAATCTGAATTCCGGTCTCCC
DNA 2: TGGTGGCTACGACGGGATT
B20: AGGAGUA (DNA:RNA)
RNA: B1 RNA with C25A, A26G, U29G, C30U, G31A
DNA 1: CAATCTGAATTCCGGTCTCCC
DNA 2: TGGTGGCTACGACGGGATT
B21: GGGCACU (DNA:RNA)
RNA: B1 RNA with C25G, A26G, A28C, U29A, G31U
DNA 1: CAATCTGAATTCCGGTCTCCC
DNA 2: TGGTGGCTACGACGGGATT
B22: CGUACAU (DNA:RNA)
RNA: B1 RNA with A26G, G27U, U29C, C30A, G31U
DNA 1: CAATCTGAATTCCGGTCTCCC
DNA 2: TGGTGGCTACGACGGGATT
B23: CUACCCC (DNA:RNA)
RNA: B3 RNA with G25C, U28C, U30C, A31C
DNA 1: CAATCTGAATTCCGGTCTCCC
DNA 2: TGGTGGCTACGACGGGATT
B24: ACCUGCA (DNA:RNA)
RNA: B3 RNA with G25A, U26C, A27C, C29G, U30C
DNA 1: CAATCTGAATTCCGGTCTCCC
DNA 2: TGGTGGCTACGACGGGATT
B25: CCACUAG (DNA:RNA)
RNA: B1 RNA with A26C, G27A, A28C, C30A
DNA 1: CAATCTGAATTCCGGTCTCCC
DNA 2: TGGTGGCTACGACGGGATT
B26: AAGCUUU (DNA:RNA)
RNA: B1 RNA with C25A, A28C, C30U, G31U
DNA 1: CAATCTGAATTCCGGTCTCCC
DNA 2: TGGTGGCTACGACGGGATT
B27: UCCGUUU (DNA:RNA)
RNA: B1 RNA with C25U, A26C, G27C, A28G, C30U, G31U
DNA 1: CAATCTGAATTCCGGTCTCCC
DNA 2: TGGTGGCTACGACGGGATT
B28: GACGUCG (DNA:RNA)
RNA: B1 RNA with C25G, G27C, A28G
DNA 1: CAATCTGAATTCCGGTCTCCC
DNA 2: TGGTGGCTACGACGGGATT
B29: AGAAAUC (DNA:RNA)
RNA: B3 RNA with G25A, U26G, U28A, C29A, A31C
DNA 1: CAATCTGAATTCCGGTCTCCC
DNA 2: TGGTGGCTACGACGGGATT
B30: AUCCCGA (DNA:RNA)
RNA: B3 RNA with G25A, A27C, U28C, U30G
DNA 1: CAATCTGAATTCCGGTCTCCC
DNA 2: TGGTGGCTACGACGGGATT
B31: UGCAAAC (DNA:RNA)
RNA: B1 RNA with C25U, A26G, G27C, U29A, C30A, G31C
DNA 1: CAATCTGAATTCCGGTCTCCC
DNA 2: TGGTGGCTACGACGGGATT

What follows are binders tested against T1, RBFOX1 RRM (assay: EMSA; HiTS-Eq, 1 nM pool, 10 min; buffer printed only for the single-RNA assays: 10 mM Tris pH 7.5, 150 mM NaCl, 3.4 mM EDTA, 0.001% NP-40, 30 C). Conditions: tags: His6 N-terminal (pET28a); label: 5' 32P.
Summary of the method: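 Purified wild-type or mutant RbFox RRM at increasing concentrations was equilibrated with 1 nM of 5′-radiolabelled RNA carrying 7 randomized nucleotides for 10 min in 50 µL. Unbound RNA was separated by 8% native PAGE and sequenced. Relative association constants came from read-count changes of each RNA species compared with the control reaction, normalised to the cognate motif.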

Binder | binding signal
B1 | 0.013 KA relative to UGCAUGU
B2 | 0.00199 KA relative to UGCAUGU
B3 | 0.00772 KA relative to UGCAUGU
B4 | 0.00242 KA relative to UGCAUGU
B5 | 0.00402 KA relative to UGCAUGU
B6 | 0.000331 KA relative to UGCAUGU
B7 | 0.00232 KA relative to UGCAUGU
B8 | 0.0129 KA relative to UGCAUGU
B9 | 0.00117 KA relative to UGCAUGU
B10 | 0.0157 KA relative to UGCAUGU
B11 | 0.00917 KA relative to UGCAUGU
B12 | 0.0154 KA relative to UGCAUGU
B13 | 0.0218 KA relative to UGCAUGU
B14 | 0.0121 KA relative to UGCAUGU
B15 | 0.00924 KA relative to UGCAUGU
B16 | 0.00138 KA relative to UGCAUGU

Binder | binding signal
B17 | 0.0274 KA relative to UGCAUGU
B18 | 0.00852 KA relative to UGCAUGU
B19 | 0.0139 KA relative to UGCAUGU
B20 | 0.00992 KA relative to UGCAUGU
B21 | 0.0241 KA relative to UGCAUGU
B22 | 0.0031 KA relative to UGCAUGU
B23 | 0.00233 KA relative to UGCAUGU
B24 | 0.0144 KA relative to UGCAUGU
B25 | 0.00444 KA relative to UGCAUGU
B26 | 0.00565 KA relative to UGCAUGU
B27 | 0.00747 KA relative to UGCAUGU
B28 | 0.0208 KA relative to UGCAUGU
B29 | 0.0038 KA relative to UGCAUGU
B30 | 0.00452 KA relative to UGCAUGU
B31 | 0.00831 KA relative to UGCAUGU
